Results: PubChem BioAssay AID485294 (National Center for Advancing Translational Sciences (NCATS), 2010)
In all, about 370,000 compounds went through this assay and about 150 (0.041%) were called active. This list was built around the results that the source calls inconclusive (neither active nor inactive); the mix of calls is not that of the screen. Calls come from the whole dose curve; as a rule, active = well fitted inhibition curve with a large enough effect; inconclusive = small, poorly fitted or top-dose-only effect; inactive = flat fitted curve, though single readings scatter. Potencies of inconclusive entries are left out as doubtful fits.

Target: Beta-lactamase (Escherichia coli (strain K12)) (UniProt P00811)
Experiment: qHTS Inhibitors of AmpC Beta-Lactamase (assay with detergent); note: nearly all actives have a fitted effect of over 25% in size
Details: AmpC hydrolysis of nitrocefin, absorbance 480 nm, 0.01% Triton; series mostly up to 114 µM
Outline: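 AmpC (5.3 nM in the dispensed reagent) in 20 mM phosphate pH 7.0 with 0.01% (detergent screen) or 0.0001% Triton X-100 was preincubated with compounds for 15 min at room temperature. Nitrocefin was then added from an 800 uM solution, and hydrolysis was followed at 480 nm.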
Potency is the fitted concentration of half-maximal effect; tags give direction and shape of the fitted curve.

Sequence of UniProt P00811 (P00811 whole entry, looked up): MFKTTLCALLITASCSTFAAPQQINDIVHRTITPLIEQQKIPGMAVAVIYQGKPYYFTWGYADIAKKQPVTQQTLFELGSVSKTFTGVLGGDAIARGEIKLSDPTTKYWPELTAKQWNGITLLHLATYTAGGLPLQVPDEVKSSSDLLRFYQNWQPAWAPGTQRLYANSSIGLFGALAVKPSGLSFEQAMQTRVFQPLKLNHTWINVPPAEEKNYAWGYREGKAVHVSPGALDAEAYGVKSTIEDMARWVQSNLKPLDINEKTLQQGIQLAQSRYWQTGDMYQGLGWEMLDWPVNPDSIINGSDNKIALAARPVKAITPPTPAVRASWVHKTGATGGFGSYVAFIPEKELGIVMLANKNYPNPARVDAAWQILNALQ

SMILES	Potency
COc1ccc(NC(=O)c2ccc(S(=O)(=O)N3CC(C)CC(C)C3)cc2)cc1S(N)(=O)=O (stereo unspecified)	inconclusive [inhibitor, full curve, poor fit]
COc1cccc2c(=O)c(SC(F)(F)C(F)C(F)(F)F)c(C)[nH]c12 (stereo unspecified)	inactive
CCCCCCc1cc2cc(C(=O)Nc3cccc(OC)c3)c(=O)oc2cc1O	inactive
O=C(CCCN1C(=O)/C(=C\c2ccco2)SC1=S)Nc1cccc2ccccc12	inconclusive [inhibitor, full curve]
COc1cc(CNCc2cccs2)ccc1OCc1ccccc1	inactive
Cc1ccc2[nH]c(=O)c(CN(Cc3cccnc3)Cc3nnnn3CCN3CCOCC3)cc2c1	inconclusive [inhibitor, full curve]
COc1ccc(N2C(=O)/C(=C/c3ccc([N+](=O)[O-])cc3)N=C2C)c(OC)c1	inconclusive [inhibitor, full curve, poor fit]
O=C1CC(O)(C(F)(F)F)Oc2c1ccc1ccccc21 (stereo unspecified)	inconclusive [inhibitor, full curve]
CCN(CC)c1ccc(/C=c2\sc3nc4ccccc4n3c2=O)c(O)c1	inactive
COCCC(=O)N(Cc1ccc2c(c1)OCO2)C(C(=O)NC1CCCCC1)c1ccncc1 (stereo unspecified)	inconclusive [inhibitor, full curve, poor fit]
COc1ccccc1CNC(=O)CCc1c(C)c2cc3c(C)coc3cc2oc1=O	inactive
Cc1nnc(C)n1/N=C/c1ccccc1	inconclusive [inhibitor, full curve, poor fit]
COc1ccc(-c2nc(CNC(=O)Nc3ccccc3)c(C)o2)c(OC)c1	inconclusive [inhibitor, single point]
Clc1ccc(-c2nnnn2-c2ccc(Cl)c(Cl)c2)cc1Cl	inconclusive [inhibitor, partial curve]
CC1(C)Cc2c(sc(/N=C/N3CCOCC3)c2C#N)C(C)(C)N1	inconclusive [inhibitor, partial curve]
Cc1cc(C(=O)OCC(=O)N2c3ccccc3CC2C)c(C)o1 (stereo unspecified)	inactive
CC(C)c1ccc(NC(=O)CSc2nc(=O)n(CCN3CCOCC3)c3c2CCC3)cc1	inconclusive [inhibitor, full curve, poor fit]
CCOC(=O)/C=c1\s/c(=C(\C#N)C(N)=O)n(-c2ccccc2)c1=O	inactive
CCc1ccc(-c2cc(C)no2)cc1S(=O)(=O)NC(C)Cc1ccco1 (stereo unspecified)	inconclusive [inhibitor, full curve, poor fit]
CC(=O)C1=C(O)C(=O)N(c2cc(C(C)(C)C)on2)C1c1ccc(C(C)C)cc1 (stereo unspecified)	inconclusive [inhibitor, partial curve, poor fit]
CCCC(=O)Nc1ccc(NC(=O)c2ccccc2Cl)nc1	inactive

SMILES	Potency
Cc1cc(C)c2cc(C(=O)N3CCC(N4CCCCC4)CC3)[nH]c2c1	inconclusive [inhibitor, full curve, poor fit]
COc1cccc(-c2nc(CS(=O)(=O)CC(=O)N3CCN(c4ccccc4)CC3)c(C)o2)c1	inactive
COC(=O)c1cccc(C(=O)N2CCC(CO)(CCc3ccccc3)CC2)c1	inconclusive [inhibitor, partial curve, poor fit]
Cc1cccc(NC(=O)COC(=O)Cc2c[nH]c3ccccc23)c1C	inconclusive [inhibitor, partial curve, poor fit]
COC(=O)c1c(NC(=O)CCN2CCOCC2)sc2c1CCCC2	inconclusive [inhibitor, full curve, poor fit]
CCCCc1cc(=O)oc2cc(OCC(=O)N[C@@H](Cc3ccccc3)C(=O)O)ccc12	inconclusive [inhibitor, partial curve, poor fit]
CCOC(=O)N1CCC(NC(=O)CCC(=O)N2CC(C)Oc3ccccc32)CC1 (stereo unspecified)	inconclusive [inhibitor, full curve, poor fit]
CCCCNC(=O)CSc1nc2ccc(NC(=O)CSc3nnc(N)s3)cc2s1	inconclusive [inhibitor, full curve, poor fit]
COc1cc(C(=O)N(Cc2ccc(N(C)C)cc2)C2CCS(=O)(=O)C2)cc(OC)c1OC (stereo unspecified)	inconclusive [inhibitor, full curve, poor fit]
O=C(CCCCCNC(=O)N1CCn2c1nc1ccccc12)N[C@H](Cc1ccccc1)C(=O)O	inconclusive [inhibitor, partial curve]
CN(C)c1ccc(C=C2C(=O)OC(C)(C(C)(C)C)OC2=O)cc1 (stereo unspecified)	inconclusive [inhibitor, full curve, poor fit]
CCC[N+]12CCC(CC1)C(=C(c1ccccc1)c1ccccc1)C2	inconclusive [inhibitor, full curve, poor fit]
CC1CCC(NC(=O)c2ccc(CSc3nc4ccncc4n3Cc3ccc(F)cc3)cc2)CC1 (stereo unspecified)	inactive
CCn1c(SCC(=O)Nc2oc(C)c3c(C)n[nH]c(=O)c23)nc2sc(C)c(C)c2c1=O	inactive
COc1cccc(C(=O)Nc2cccc(-c3nnc(-c4ccco4)o3)c2)c1	inconclusive [inhibitor, partial curve, poor fit]
CC(=O)c1ccc(OCc2cc(C(=O)N(C)Cc3ncc(C)[nH]3)no2)cc1	inactive
Cc1ccc(S(=O)(=O)/N=C(/Nc2c(C)n(C)n(-c3ccccc3)c2=O)c2ccccc2)cc1	inconclusive [inhibitor, partial curve]
CCOC(=O)c1c(C)[nH]c(C(=O)OCC(=O)Nc2sc(C(=O)N(C)C)c(C)c2C(=O)OCC)c1C	inconclusive [inhibitor, full curve, poor fit]
N#Cc1c(-n2cccc2/C=N/O)sc2c1CCCC2	inconclusive [inhibitor, single point]
CN1C(=O)c2cccc(NCCCCCCN3C(=O)c4ccccc4C3=O)c2C1=O	inactive
